Data as given in PubChem BioAssay AID1159614 (National Center for Advancing Translational Sciences (NCATS), 2016).
About 65 (0.1%) of roughly 45,000 compounds were called active. The call rests on the fitted dose curve; in most records, active means well fitted activation curve with a large enough effect; inconclusive means small, poorly fitted or top-dose-only effect; inactive means no such curve, though single readings can be large or run the other way. The list shows a part of the results.

target: Galactocerebrosidase (Homo sapiens) (UniProt P54803); test: A Novel Cell-Based Assay to Identify Small Molecules for B -Galactocerebrosidase; details: 145M-Twi-hGALC-G270D cells, HMU-beta-Gal fluorescence, 48 h; series mostly up to 57.5 µM; activation: at the top concentration; further: 0% is about no effect; nearly all actives have a fitted effect of over 65% in size
UniProt P54803, sequence (P54803 whole entry, looked up): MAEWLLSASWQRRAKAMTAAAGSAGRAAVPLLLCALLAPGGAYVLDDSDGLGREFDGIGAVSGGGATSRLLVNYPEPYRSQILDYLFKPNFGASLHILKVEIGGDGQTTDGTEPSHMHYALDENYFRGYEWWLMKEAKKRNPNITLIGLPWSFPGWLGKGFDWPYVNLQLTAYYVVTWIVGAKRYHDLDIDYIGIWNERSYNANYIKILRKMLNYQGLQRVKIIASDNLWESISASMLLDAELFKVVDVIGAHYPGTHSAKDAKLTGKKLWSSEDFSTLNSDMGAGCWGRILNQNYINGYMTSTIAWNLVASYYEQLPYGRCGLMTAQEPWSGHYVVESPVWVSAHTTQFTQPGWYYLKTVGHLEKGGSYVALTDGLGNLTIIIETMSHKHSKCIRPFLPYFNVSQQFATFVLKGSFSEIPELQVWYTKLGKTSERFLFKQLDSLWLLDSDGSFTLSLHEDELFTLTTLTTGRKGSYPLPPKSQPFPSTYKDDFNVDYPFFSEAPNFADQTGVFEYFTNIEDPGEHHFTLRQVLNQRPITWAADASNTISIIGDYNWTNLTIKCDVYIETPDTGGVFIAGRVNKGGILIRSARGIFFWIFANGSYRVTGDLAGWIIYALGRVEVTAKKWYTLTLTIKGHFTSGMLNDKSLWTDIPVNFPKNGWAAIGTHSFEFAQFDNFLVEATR
Procedure, shortened: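 qHTS, 1536-well; 145M-Twi-hGALC-G270D cells (WT line also made) in DMEM/F12 + 10% FBS; compound incubation on live cells; HMU-β-gal 0.1 mM final, pH 5.2, NaTC; carbonate stop; fluorescence increase = enhanced residual activity.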

activation, inactive:
CSc1nn(Cc2cccc(Cl)c2)c(N(C(C)=O)C(C)=O)c1S(=O)(=O)c1ccccc1 1.74%, COc1ccc(-n2cc(C(=O)OCc3ccc(Cl)cc3)c3ccccc3c2=O)cc1 -3.01%, CN(C)c1ccc(C(CNS(=O)(=O)c2ccc(F)cc2)N2CCOCC2)cc1 (stereo not given) -14.7%, Cn1c(=O)c(=O)n(C)c2cc(S(=O)(=O)N3CCCC3C(=O)Nc3ccc(F)cc3)ccc21 (stereo not given) 11.6%, COc1ccc(S(=O)(=O)N(CC(=O)NCCSCc2ccccc2)c2ccc(C)cc2)cc1 -7.74%, Cc1ccc(NC(=O)CSc2ccc(-c3ccccn3)nn2)cc1F 2.76%, CCOc1ccc(CNC(=O)Cn2ccc3cc(S(=O)(=O)N4CCCCC4)ccc32)cc1 -11%, Cc1c(C(=O)OC2CCCCCC2)[nH]c2c1C(=O)CC(c1ccc(N(C)C)cc1)C2 (stereo not given) -15.8%, COc1cc(OC)cc(C(=O)Nc2cc(-c3nc4cccnc4s3)ccc2C)c1 -6.69%, CCC(C(=O)Nc1ccc(C(=O)OC)cc1)n1nc(-c2ccc(C)c(C)c2)ccc1=O (stereo not given) -8.65%, COc1ccc(NC(=O)C2CCN(S(=O)(=O)c3ccc4c(c3)CCCC(=O)N4)CC2)c(OC)c1 -12.8%, CCOc1ccc(Nc2sc(C(=O)c3cccc(OC)c3)c(N)c2S(=O)(=O)c2ccccc2)cc1 -18.8%, O=S(=O)(c1ccc(-n2cnnn2)cc1)N1CCN(c2cccc(C(F)(F)F)c2)CC1 -16.5%, Cc1oc(C)c2c(=O)cc(-c3ccc4c(c3)OCO4)cc(OC(=O)c3cccc(Cl)c3)c12 -26.6%, N#Cc1c(C(F)(F)F)cc(-c2cccs2)nc1SCC(=O)Nc1cccc(C(F)(F)F)c1 -17%, COc1ccc(S(=O)(=O)N(Cc2nc(-c3ccc(Cl)cc3)no2)C2CCCCC2)cc1 3.3%, Cc1ccc(S(=O)(=O)NCc2ccc(C(=O)NCCc3cccc(C)c3)cc2)cc1 -17.2%, Cc1ccc(Cn2c(=O)n(-c3cc(C)cc(C)c3)c(=O)c3oc4ccccc4c32)cc1 -12.1%, O=C(c1ccccc1Br)N1CCC(c2nc3ccccc3o2)CC1 -6.64%, COC(=O)c1ccc(Cl)cc1NC(=O)N(Cc1ccc(OC)cc1)C1CCN(C(C)=O)CC1 -0.504%, CCCCOC(=O)c1cccc(NC(=O)/C=C/c2ccccc2Cl)c1 -30.1%, O=C(Cn1c(SCC(=O)Nc2ccc(F)cc2)nc2ccccc21)NCc1ccccc1Cl -4.22%, COc1ccc(OC)c(NC(=O)CSc2nc3ccccc3c(=O)n2CCC(=O)NC2CCCCC2)c1 -14.8%, COc1ccccc1NC(=O)C(Cc1ccccc1)NS(=O)(=O)c1cccc2nsnc12 (stereo not given) -22.6%, CCOC(=O)COc1ccc(F)cc1C(=O)c1ccn2nc(-c3ccc(C)cc3)cc2n1 -7.66%, CN1C(=O)C(C)(C)c2cc(S(=O)(=O)N3CCCC3C(=O)Nc3ccc(F)cc3)ccc21 (stereo not given) -9.49%, COc1cc(Cl)c(C)cc1NC(=O)c1sc2nc(C)cc(C)c2c1N -21.5%, Cc1ccsc1CN(C(=O)COc1cccc(C)c1C)C1CCS(=O)(=O)C1 (stereo not given) -20.6%, COc1cc(C(=O)N(Cc2cccnc2)c2nc3cc(C)c(C)cc3s2)cc(OC)c1OC -3.85%, COc1ccc(NC(=O)Cn2c(=O)n(Cc3ccco3)c(=O)c3oc4ccccc4c32)cc1Cl -6.94%, COc1cc2c(cc1NC(=O)COc1ccc(Cl)cc1)oc1ccccc12 -33.4%, Clc1ccccc1CN1CCc2nc(N3CCN(c4ncccn4)CC3)ncc2C1 -3.57%, Cc1nnc(N2CCC(C(=O)NC(C)C)CC2)c2nn(-c3ccccc3)c(C)c12 5.06%, O=C(Nc1ccc(F)cc1)c1cc2cc3ccc(Cl)cc3nc2o1 -15.7%, Cc1ccc(-c2noc(-c3nnn(-c4ccc(Br)cc4F)c3C)n2)cc1 -12.9%, Cc1ccccc1CNCc1c(C(=O)O)c(C)n(Cc2ccc(F)cc2Cl)c1C -15.3%, COc1ccc(-n2ncc3c2ncn2nc(Cc4ccccc4)nc32)cc1 -8.55%, CC(=O)Nc1ccc(C(=O)Nc2ccc3c(c2)N(C2CCCC2)C(=O)c2ccccc2S3)cc1 2.87%, Cc1cc(C)cc(NC(=O)c2cc(S(=O)(=O)N3CCCC3)ccc2F)c1 -13.3%, Cn1nc(-c2ccccc2F)c2cc(C(=O)NCc3cccc(Cl)c3)sc21 -17.2%, Cc1ccc(C)c(NC(=O)c2nnn(Cc3ccc(F)cc3Cl)c2N)c1 -24.7%, Cc1cccc(CSc2nnc(CCCCCN)o2)c1 5.96%, COc1ccc(OC)c(CCNC(=O)Cn2nc(C)n3c(cc4sccc43)c2=O)c1 -14.7%, COc1ccc(-n2ncc(C(=O)NCCN3CCOCC3)c2C2CCN(C(=O)OC(C)(C)C)CC2)cc1 2.7%, CCc1c(C)sc2c1CCN(C(=O)Nc1cc(C)ccc1C)C2c1ccc(OC)cc1 (stereo not given) -17.9%, Cc1nc(-c2cccc(S(=O)(=O)N3CCC(C(=O)NCc4ccccc4Cl)CC3)c2)no1 -1.88%, O=C(c1cc2c(s1)-c1ccccc1OC2)N1CCN(c2ccc(F)cc2)CC1 -16.9%, COc1ccc(CCNS(=O)(=O)c2ccc(N3CCCCS3(=O)=O)cc2)cc1 -9.07%, CCC1Oc2ccccc2N(CC(=O)NCCc2ccc(OC)c(OC)c2)C1=O (stereo not given) -3.62%, O=c1oc2ccc3ccccc3c2cc1-c1nnc(Nc2cccc(C(F)(F)F)c2)s1 -1.38%, COc1cc(OC)c(NC(=O)N2CCc3cc(S(=O)(=O)N4CCC(C)CC4)ccc32)cc1Cl -26.3%, CC(=O)c1ccc(NC(=O)CSc2ccc3nnc(CCNS(=O)(=O)c4ccc(C)cc4)n3n2)cc1 -17.4%, Cc1ccc(Nc2ncc(C(=O)Nc3ccc(F)cc3F)c3ccccc23)cc1Cl -18.3%, Cc1ccc(CN(C(=O)COc2ccc([N+](=O)[O-])cc2)c2ccccn2)o1 -8.42%, CCC1CCCCN1S(=O)(=O)c1cc2c(cc1C)NC(=O)CO2 (stereo not given) -0.916%, COc1ccc(CNC(=O)c2nn(C)c3c2CS(=O)(=O)c2ccccc2-3)cc1 -9.36%, CC(=O)c1cccc(NC(=O)C2CCN(S(=O)(=O)c3ccccc3)CC2)c1 16.8%, c1ccc2c(c1)ncc1nncn12 1.32%, CC1CCC(NC(=O)Cn2ncc3c4ccccc4n(Cc4ccc(F)cc4)c3c2=O)CC1 (stereo not given) -5.94%, O=c1[nH]c2ccc(NCc3ccc(-c4ccc(F)cc4)o3)cc2[nH]1 -4.85%, CCc1nnc(SCC(=O)Nc2cccc(C(F)(F)F)c2)c2cc3oc(C)cc3n12 -11.1%, COc1ccc(/C=C/C(=O)Nc2ccc3nc4c(c(Nc5ccc(OC)c(OC)c5)c3c2)CCCC4)cc1 -24%, COc1ccc(-c2noc(CSc3nnc(Cc4ccccc4)n3-c3cccc(C)c3)n2)cc1 -7.61%, CCOC(=O)Cc1c(C)nc2c(-c3ccc(Cl)cc3)c(C(F)(F)F)nn2c1C -5.47%, CCCc1nn2cc(-c3ccc(C)c(C)c3)nc2s1 0.427%, COc1ccc(CCNC(=O)CCS(=O)(=O)c2cc3c(cc2Cl)NC(=O)CO3)cc1OC 0.906%, O=C(COc1ccccc1)Nc1nnc(SCc2cc(=O)n3cc(Cl)ccc3n2)s1 2.64%, CC1=C(C(=O)O)N2C(=O)[C@@H](NC(=O)[C@H](N)c3ccccc3)[C@H]2SC1 -6.44%, Cc1oc(-c2ccccc2Cl)nc1CS(=O)(=O)CC(=O)NC(C)c1ccccc1 (stereo not given) -2.67%, CCC(C(=O)Nc1ccccc1OC)n1c(C(=O)OC)cc2sc(Cl)cc21 (stereo not given) -23.9%, Cc1ccc2onc(CNC(=O)NCc3ccccc3)c2c1 -18.7%, CCOc1ccccc1CNC(=O)CSc1nnc(C)c2c(C)n(-c3ccccc3)nc12 -16.6%, CC(=O)N1CCc2cc(S(=O)(=O)NC(CC(C)C)C(=O)NCCc3cccc(C)c3)ccc21 (stereo not given) -3.13%, CCOCCCNC(=O)c1ccc2c(=O)n(CCc3ccc(OC)c(OC)c3)c(=O)[nH]c2c1 -13.8%, Cc1ccc2oc(-c3cc(NC(=O)c4oc5ccccc5c4C)ccc3Cl)nc2c1 24.3%, Cc1ccc2oc(=O)n(Cc3ccccc3Cl)c2c1 19.4%, CCc1ccc(OCC(=O)Nc2cc(-c3nc4cc(C)ccc4o3)ccc2C)cc1 7.53%, CN(Cc1ccc(F)cc1)S(=O)(=O)c1nnc(NC(=O)c2ccccc2)s1 -7.47%, CCCNC(=O)C1CCC(CNS(=O)(=O)c2ccc3c(c2)CC(C)N3C(C)=O)CC1 (stereo not given) -7.02%, Cc1ccc(NC(=O)c2oc3ccccc3c2NC(=O)C23CC4CC(CC(C4)C2)C3)cc1 -0.849%, Cc1ccc(C(=O)NCc2ccccc2)cc1NC(=O)c1nsc2ccccc12 -4.91%, CCOc1ccc(Nc2ncnc3scc(-c4ccc(OC)cc4)c23)cc1 -16.2%, CC(C)(C)OC(=O)N1CCC(c2c(C(=O)N3CCN(Cc4ccccc4)CC3)cnn2-c2ccc(Cl)cc2)CC1 -13.5%, Cn1cc(C(=O)NCCc2ccccc2)c(=O)c2cc(S(=O)(=O)N3CCCCC3)ccc21 -12.4%, Cc1cc(-c2ccc(C)c(S(=O)(=O)NCc3cccs3)c2)on1 -13.8%, CCc1ccc(N2C(=O)CN(S(=O)(=O)CC)CC2(C)C(=O)NC2CCCCC2)cc1 (stereo not given) 0.64%, CCOC(=O)c1c(C)[nH]c(C)c1S(=O)(=O)N1CCC(C(=O)Nc2ccc(C)c(N(C)C)c2)CC1 -6.74%, Cc1ccc(Nc2c(-c3ccc(C)o3)nc3cccc(C)n23)cc1 -16%, O=c1c2oc3ccccc3c2n(Cc2ccc(Cl)cc2)c(=O)n1Cc1ccccc1 -11.1%, CCC1CCCCN1C(=O)CCS(=O)(=O)c1cc2c(cc1C)NC(=O)CO2 (stereo not given) 6.88%, O=C(CNC(=O)c1ccccc1)OCc1cc(=O)n2nc(C3CC3)sc2n1 -6.98%, O=C(Nc1cc(F)ccc1F)c1ccc(CN2CC(=O)N3CCCCC3C2=O)cc1 (stereo not given) -12%, COc1ccc(-c2cc(=O)oc3c4c(ccc23)OCN(Cc2ccccc2)C4)cc1 -18.6%, CC1(C)OC(=O)Nc2ccc(Br)cc21 -5.65%, Cc1cc(C)cc(-n2c(SCC(=O)N3CCCCCC3)nc3c([nH]c4ccccc43)c2=O)c1 -14.3%
